{"source": "PubChem BioAssay AID686978", "about": "(National Center for Advancing Translational Sciences (NCATS), 2013)", "note": "In all, about 420,000 compounds went through this assay and about 64,000 (15%) were called active. The shares of active, inactive and inconclusive entries below differ from those in the screen. Calls follow the shape of the dose curve; as a rule, active = well fitted inhibition curve with a large enough effect; inconclusive = small, poorly fitted or top-dose-only effect; inactive = flat fitted curve, though single readings scatter. No potency is given beside an inconclusive call; the fits are too rough. % is scaled to controls: 0 for no effect and ±100 for the full control effect; potency is read from the fitted curve at half-maximal effect; tags tell the direction and shape of the fitted curve."}
{"experiment": "qHTS for Inhibitors of human tyrosyl-DNA phosphodiesterase 1 (TDP1): qHTS in cells in absence of CPT; also: nearly all actives have a fitted effect of over 55% in size", "settings": "DT40 Tdp1-/- hTDP1 cells, no CPT, ATP luminescence, 48 h; activity change, negative = growth inhibition: at 46.2 µM (top of the series)", "summary_of_the_method": "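No-CPT arm: Tdp1-/-;hTDP1 DT40 cells (400/well) plus compounds, incubated ≥48 hr at 37 °C. Readout CellTiter-Glo luminescence.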"}
{"compound": "COc1ccccc1N1CCN(c2ccc(=O)n(CC(=O)NCc3ccc(OC(C)C)cc3)n2)CC1", "Potency": "inconclusive [inhibitor, single point]"}
{"compound": "Cc1ccc(-c2cc(C(=O)N3CCCCC3)c3ccccc3n2)cc1C", "Potency": "active: 23.1 µM"}
{"compound": "COC(=O)[C@@]12C[C@@H](CC(=O)NCC3CCCCC3)C(=O)N(Cc3cccc4ccccc34)C1=CCC(C)(C)C2", "Potency": "active: 16.4 µM"}
{"compound": "Cc1ccc(NC(=O)Cn2cc3c(n2)CCCC3)c(Cl)c1", "Potency": "inconclusive [inhibitor, single point]"}
{"compound": "Cn1nc(C(F)(F)F)c(C#N)c1N1CCN(c2cccc(C(F)(F)F)c2)CC1", "Potency": "inconclusive [inhibitor, partial curve]"}
{"compound": "COc1ccc(Oc2c(C(F)(F)F)oc3c(CN4CCCC(C)C4)c(O)ccc3c2=O)cc1", "note": "(centres undefined)", "Potency": "inconclusive [inhibitor, single point]"}
{"compound": "CCC(C)NS(=O)(=O)c1ccc(S(=O)(=O)N2CC=C(c3ccc(F)cc3)CC2)cc1", "note": "(centres undefined)", "Potency": "active: 18.4 µM"}
{"compound": "COCCn1c(N)c(C(=O)OCc2ccccc2)c2nc3ccccc3nc21", "Potency": "inconclusive [inhibitor, single point]"}
{"compound": "COc1ccc2c(c1)C=C/C2=C/c1ccc(N(C)C)cc1", "Potency": "inconclusive [inhibitor, single point]"}
{"compound": "C[C@H]1CN([C@@H](C)CO)C(=O)c2cc(NS(=O)(=O)c3ccc(F)cc3)ccc2O[C@H]1CN(C)S(=O)(=O)c1cn(C)cn1", "Potency": "inconclusive [inhibitor, full curve, poor fit]"}
{"compound": "CCOC(=O)C1=C(C)OC(N)=C(C#N)C1c1c(C)nn(-c2ccccc2)c1Cl", "note": "(centres undefined)", "Potency": "inconclusive [inhibitor, partial curve]"}
{"compound": "Cn1c(CCNC(=O)c2ccco2)nc2cc(NS(=O)(=O)c3ccc(Cl)cc3)ccc21", "Potency": "inconclusive [inhibitor, single point]"}
{"compound": "CCC(=O)N1N=C(c2cccs2)CC1c1ccco1", "note": "(centres undefined)", "Potency": "inconclusive [inhibitor, partial curve, poor fit]"}
{"compound": "COc1cc(C(=S)N2CCCCC2)ccc1OCC(=O)Nc1ccc(F)cc1", "Potency": "inconclusive [inhibitor, single point]"}
{"compound": "O=C(Nc1cccc(Cl)c1)c1ccc(F)c(S(=O)(=O)NCc2ccc3c(c2)OCO3)c1", "Potency": "active: 25.9 µM"}
{"compound": "Cc1nn(C)c2c1c(C(F)(F)F)cc(=O)n2CC(=O)NCCC(C)C", "activity change, negative = growth inhibition": "inactive: -24.2%"}
{"compound": "Cc1ccc(-n2ncc3c(=O)n(CC(=O)N4CCCCCC4)cnc32)cc1", "Potency": "inconclusive [inhibitor, single point]"}
{"compound": "O=C(OCC(=O)N1N=C(c2ccc(Cl)cc2)CC1c1ccco1)c1ccco1", "note": "(centres undefined)", "Potency": "inconclusive [inhibitor, single point]"}
{"compound": "Cc1ccc(-c2csc3ncnc(N4CCN(S(=O)(=O)c5ccc(C#N)cc5)CC4)c23)cc1", "Potency": "active: 16.4 µM"}
{"compound": "NC(CC(=O)NC(c1ccccc1)(c1ccccc1)c1ccccc1)C(=O)O", "note": "(centres undefined)", "activity change, negative = growth inhibition": "inactive: -0.0279%"}
{"compound": "O=C(Nc1ccc(O)cc1)c1cc2ccccc2c(=O)s1", "Potency": "active: 16.4 µM"}
{"compound": "CCCCS(=O)CC(COC)OC(=O)c1ccccc1", "note": "(centres undefined)", "Potency": "inconclusive [inhibitor, single point]"}
{"compound": "CN(C(=O)COc1ccc(Br)cc1Cl)C1CCCCC1", "Potency": "inconclusive [inhibitor, single point]"}
{"compound": "Cc1ccc(CNC(=O)c2cccc3c2C(=O)c2ccc(N4CCCCC4)cc2S3(=O)=O)cc1", "Potency": "inconclusive [inhibitor, single point]"}
{"compound": "CCCC(=O)N1CCN(c2ccc(NC(=O)c3ccccc3)cc2)CC1", "Potency": "inconclusive [inhibitor, single point]"}
{"compound": "CC1=C(c2ccc(C)cc2)S(=O)(=O)NC1=NCCCN1CCN(c2ccccc2F)CC1", "Potency": "active: 16.4 µM"}
{"compound": "CN(Cc1ccccc1)C(=O)c1cccc(NC(=O)Cc2ccc(NC(=O)C3CCN(C(=O)C4CCCC4)CC3)cc2)c1", "Potency": "inconclusive [inhibitor, single point]"}
{"compound": "O=C(Nc1ccc2oc(-c3cccnc3)nc2c1)c1ccc(-c2ccccc2OC(F)(F)F)o1", "Potency": "active: 9.2 µM"}
{"compound": "CCOC(=O)c1cc(C)sc1NC(=O)C1CCC1", "activity change, negative = growth inhibition": "inconclusive: -29.6% [inhibitor]"}
{"compound": "O=C(Nc1ccccc1)c1cc(C2CCCCN2C(=O)c2ccccc2)on1", "note": "(centres undefined)", "Potency": "inconclusive [inhibitor, single point]"}
{"compound": "CCSc1nnc2c(n1)OC1(CCCC1)Nc1ccccc1-2", "Potency": "inconclusive [inhibitor, partial curve, poor fit]"}
{"compound": "CC(C)N1C(=O)/C(=C\\c2nc3ccccc3c(=O)n2-c2ccccc2)c2ccccc21", "Potency": "active: 16.4 µM"}
{"compound": "COc1cc(C2C(C#N)=C(N)N(N(C)C)C3=C2C(=O)CC(C)(C)C3)ccc1O", "note": "(centres undefined)", "activity change, negative = growth inhibition": "inactive: -6.06%"}
{"compound": "Cc1nn(Cc2ccccc2)c(C)c1C(=O)N1CCN(CC(=O)Nc2ccccc2Cl)CC1", "Potency": "active: 23.1 µM"}
{"compound": "CCOc1cc(N2CCOCC2)c(OCC)cc1NC(=O)C1=COCCO1", "Potency": "inconclusive [inhibitor, partial curve]"}
{"compound": "C=CCN(c1ccccc1)S(=O)(=O)c1cccc(C(=O)NCc2ccco2)c1", "Potency": "inconclusive [inhibitor, single point]"}
{"compound": "CCc1c(C(=O)Nc2cc(C(=O)OC)ccc2C)csc1C", "activity change, negative = growth inhibition": "inactive: -5.19%"}
{"compound": "O=C(NCc1ccccc1Cl)C1CCC(CNc2c(N3CCCCC3)c(=O)c2=O)CC1", "note": "(centres undefined)", "activity change, negative = growth inhibition": "inactive: -1.64%"}
{"compound": "CCOC(=O)CN1C(=O)N[C@H](c2ccc(Br)cc2)C(C(C)=O)=C1C", "Potency": "inconclusive [inhibitor, single point]"}
{"compound": "CCCCCCCCOc1ccc(C(=O)O)cc1", "activity change, negative = growth inhibition": "inactive: -2.64%"}
{"compound": "CCN1CCCC1CNC(=O)C1CCN(Cc2nc(-c3cccc(Br)c3)oc2C)CC1", "note": "(centres undefined)", "Potency": "active: 2.91 µM"}
{"compound": "COc1ccc(C2CC(c3ccccc3)=NN2c2ccc(S(N)(=O)=O)cc2)cc1", "note": "(centres undefined)", "Potency": "inconclusive [inhibitor, single point]"}
{"compound": "CN(CC(=O)Nc1ccccc1C(=O)NC1CC1)Cc1ccco1", "activity change, negative = growth inhibition": "inactive: 1.52%"}
{"compound": "C=C1C=C(C(F)F)n2ncc(C(=O)N3CCc4ccccc4C3)c2N1", "Potency": "inconclusive [inhibitor, single point]"}
{"compound": "O=C1NC[C@H](CCCCN2CCN(CCc3ccccc3)C(=O)C2=O)N(CC2CCCCC2)C1=O", "activity change, negative = growth inhibition": "inactive: -18.5%"}
{"compound": "COc1ccccc1NC(=O)CNC(=O)c1ccc([N+](=O)[O-])cc1", "activity change, negative = growth inhibition": "inactive: -23.4%"}
{"compound": "COc1ccccc1CNc1cc(-c2ccccc2OC)ncn1", "Potency": "active: 2.91 µM"}
{"compound": "CC(C)COP(=O)(OCC(C)C)C(Nc1ccccc1)c1ccc2c(c1)OCO2", "note": "(centres undefined)", "Potency": "inconclusive [inhibitor, single point]"}
{"compound": "Cc1nonc1NC(=O)CSc1nc2ccccc2cc1C#N", "Potency": "inconclusive [inhibitor, partial curve]"}
{"compound": "CN(C)c1ccc(-c2nc(NCCN3CCOCC3)c3ccccc3n2)cc1", "Potency": "inconclusive [inhibitor, partial curve, poor fit]"}
{"compound": "NC(=O)C1CCN(CC(=O)Nc2ccccc2Sc2ccccc2)CC1", "Potency": "inconclusive [inhibitor, single point]"}
{"compound": "O=C(CSC1=NCCS1)N1CCCC1", "activity change, negative = growth inhibition": "inactive: 13.9%"}
{"compound": "Cc1ccc(C(=O)Nc2cc3c(cc2N2CCCCC2)n(C)c(=O)n3C)cc1", "activity change, negative = growth inhibition": "inactive: 0.77%"}
{"compound": "Nc1ccc2c(c1Cl)C(=O)c1ccc(N)c(Cl)c1C2=O", "Potency": "inconclusive [inhibitor, partial curve]"}
{"compound": "CCC(C(=O)NCCc1ccc(OC)cc1OC)n1nc(C)n2c(cc3occc32)c1=O", "note": "(centres undefined)", "Potency": "inconclusive [inhibitor, partial curve]"}
{"compound": "COc1ccc(OCCCCc2c(C)n[nH]c2C)cc1", "Potency": "inconclusive [inhibitor, partial curve]"}
{"compound": "COc1ccc(C(=O)COC(=O)CNC(=O)c2ccc(Cl)cc2Cl)c(OC)c1", "activity change, negative = growth inhibition": "inactive: -28.6%"}
{"compound": "CCC1CCc2nc3sc(C(=O)Nc4ccc(C)cc4)c(N)c3cc2C1", "note": "(centres undefined)", "Potency": "active: 7.31 µM"}
{"compound": "CC1CC(=O)C(C(C2=C(O)CC(C)CC2=O)c2ccccc2)=C(O)C1", "note": "(centres undefined)", "activity change, negative = growth inhibition": "inactive: 0.613%"}
{"compound": "COc1ccccc1C(=O)NCCn1cc(SCc2ccc(C)cc2)c2ccccc21", "Potency": "inconclusive [inhibitor, single point]"}
{"compound": "COc1ccc2[nH]c(C)c(C(=O)CN3CCN(C/C=C/c4ccccc4)CC3)c2c1", "Potency": "inconclusive [inhibitor, single point]"}
{"compound": "CC(C)C(=O)Nc1c(-c2ccccc2Cl)c(=O)c2ccccc2n1C", "activity change, negative = growth inhibition": "inactive: 0.099%"}
{"compound": "N=NC(=O)c1ccccc1Nc1c(O)[nH]c2ccccc12", "Potency": "inconclusive [inhibitor, partial curve]"}
{"compound": "CCC/C=C/c1ccc(CN2C(CC(C)C)C(=O)N(Cc3cn(CCC4OCCCO4)nn3)CCS2(=O)=O)cc1", "note": "(centres undefined)", "Potency": "active: 23.1 µM"}
{"compound": "Cc1nc2c(-c3ccc(F)cc3)c(C)nn2c(C)c1CCC(=O)Nc1ccccc1F", "activity change, negative = growth inhibition": "inactive: -18%"}
{"compound": "CC1CCCC(NC(=O)CN2C(=O)NC(c3ccccc3)(c3ccccc3)C2=O)C1C", "note": "(centres undefined)", "Potency": "inconclusive [inhibitor, partial curve, poor fit]"}
{"compound": "O=[N+]([O-])c1cc2c(c(CSc3nnc(Nc4ccccc4)s3)c1)OCOC2", "Potency": "inconclusive [inhibitor, partial curve]"}
{"compound": "CC1CC(C)(C)NC(=S)N1CCC(=O)NCCc1ccc(Cl)cc1", "note": "(centres undefined)", "Potency": "inconclusive [inhibitor, partial curve]"}
{"compound": "O=C(Nc1ccccc1C(=O)Nc1ccncc1)c1ccc([N+](=O)[O-])cc1", "Potency": "inconclusive [inhibitor, single point]"}
